From the supplement of paper PMC3334620
In all, about 33,000 sequences were measured (“E-score (-0.5 to 0.5)”: median about -0.035, highest 2% from about 0.35 on). The list shows a part of the results.

molecular target: T1, Pdr3 (UniProt P33200); assay: PBM E-score (8-mer binding enrichment) (E-score (-0.5 to 0.5)); higher = stronger / more preferred TF binding; most listed sequences are background and not binding sites; conditions: protein concentration: 200 nM; construct: GST-full length
T1 sequence: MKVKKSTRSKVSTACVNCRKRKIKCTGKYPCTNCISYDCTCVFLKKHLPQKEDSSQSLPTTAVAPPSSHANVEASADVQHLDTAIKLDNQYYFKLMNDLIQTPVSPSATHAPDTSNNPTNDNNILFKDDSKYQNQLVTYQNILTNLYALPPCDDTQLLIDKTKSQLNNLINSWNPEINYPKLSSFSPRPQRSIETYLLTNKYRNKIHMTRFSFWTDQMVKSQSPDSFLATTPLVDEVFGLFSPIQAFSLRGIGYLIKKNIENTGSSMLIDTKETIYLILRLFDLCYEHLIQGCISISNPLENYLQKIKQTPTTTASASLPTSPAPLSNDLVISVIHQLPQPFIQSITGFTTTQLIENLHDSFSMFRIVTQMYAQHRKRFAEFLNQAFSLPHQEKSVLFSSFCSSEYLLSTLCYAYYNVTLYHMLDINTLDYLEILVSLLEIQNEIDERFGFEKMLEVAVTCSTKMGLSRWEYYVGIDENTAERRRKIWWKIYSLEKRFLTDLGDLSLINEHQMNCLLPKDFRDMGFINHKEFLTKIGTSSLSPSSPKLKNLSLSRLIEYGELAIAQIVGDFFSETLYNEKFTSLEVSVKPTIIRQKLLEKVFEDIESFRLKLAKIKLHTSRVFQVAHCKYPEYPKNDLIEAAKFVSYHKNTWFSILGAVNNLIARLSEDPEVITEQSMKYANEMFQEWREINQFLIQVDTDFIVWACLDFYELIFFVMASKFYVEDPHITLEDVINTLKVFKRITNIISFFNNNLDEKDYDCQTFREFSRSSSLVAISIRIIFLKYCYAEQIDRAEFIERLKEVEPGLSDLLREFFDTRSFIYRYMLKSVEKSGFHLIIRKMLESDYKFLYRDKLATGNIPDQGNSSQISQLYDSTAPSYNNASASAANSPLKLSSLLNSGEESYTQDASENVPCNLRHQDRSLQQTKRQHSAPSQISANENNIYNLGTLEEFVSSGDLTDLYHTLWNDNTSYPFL
In short: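 PURExpress in vitro transcription/translation supplied GST-tagged yeast transcription factors, either full-length or DNA-binding domain. Applied at about 100-200 nM to universal all-10-mer Agilent arrays double-stranded by primer extension, the bound protein was detected with fluorescent anti-GST. E-scores, modified Wilcoxon-Mann-Whitney statistics, were given by the Universal PBM Analysis Suite to ungapped eight-base words pooled with their reverse complements after masliner normalisation.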

Going from AGGCAACG to GATTGGTA, the “PBM E-score” value rises from 0.00606 to 0.104.

Going from CTTTGTGA to CCTTCTCA, the “PBM E-score” value falls from -0.0457 to -0.0704.

Compared with AGCTTTGA, CGGAAGTC is higher in “PBM E-score” value: -0.0592 for the first, 0.421 for the second.

Compared with ACCCGGCC, AAAGAGTA is lower in “PBM E-score” value: 0.285 for the first, -0.157 for the second.

First: GCGCGCGC
Second: GGCCCTAC
The “PBM E-score” value of the first is higher: 0.388 for the first, -0.0753 for the second.

Going from GACCCCTC to GACCACAC, the “PBM E-score” value rises from -0.154 to 0.0164.

Going from GCCAGTGA to CGCTGAAC, the “PBM E-score” value rises from -0.163 to 0.0298.

Compared with AACGACGC, ATCCCTTC is higher in “PBM E-score” value: -0.129 for the first, -0.0729 for the second.

Compared with ACTCTCCA, CGCCCAAA is higher in “PBM E-score” value: -0.229 for the first, -0.0537 for the second.

First: CAACCCGC
Second: CTTGAACC
The “PBM E-score” value of the first is higher: 0.267 for the first, -0.0942 for the second.

Compared with AATATATT, TCACAGAA is lower in “PBM E-score” value: 0.295 for the first, -0.155 for the second.

Going from GACAGCCA to CCATAAAA, the “PBM E-score” value rises from -0.12 to 0.0632.

Compared with ACAATATG, ACATCACC is lower in “PBM E-score” value: 0.147 for the first, -0.00287 for the second.

Going from AACGCCTG to CACTTACG, the “PBM E-score” value rises from -0.206 to 0.121.

First: CGTGTAGC
Second: CCGAACAG
The “PBM E-score” value of the first is lower: -0.0915 for the first, 0.0662 for the second.

Compared with ACTCTAAC, GATGAATC is lower in “PBM E-score” value: 0.0388 for the first, 0.0257 for the second.

Going from ACAAAATA to AATTCTTG, the “PBM E-score” value falls from 0.0651 to -0.135.

Compared with AGTCGCAC, AGTGAGTG is lower in “PBM E-score” value: -0.0967 for the first, -0.158 for the second.

Going from CGATTCCC to AGCCGCCC, the “PBM E-score” value falls from 0.181 to 0.122.

Compared with CTATACTC, CTCGCGGC is higher in “PBM E-score” value: 0.0145 for the first, 0.171 for the second.

Going from ACTAAGAA to AGGAACAA, the “PBM E-score” value falls from 0.106 to 0.0344.

Compared with TACATTGA, TATGAGGA is lower in “PBM E-score” value: -0.0689 for the first, -0.232 for the second.

First: AGTTCGGC
Second: ACGTTACG
The “PBM E-score” value of the first is higher: -8e-05 for the first, -0.211 for the second.

First: TATCCCAA
Second: ACGACACG
The “PBM E-score” value of the first is lower: -0.0877 for the first, 0.0898 for the second.

Going from GTAACCCA to AGACTTAG, the “PBM E-score” value falls from 0.0499 to -0.31.

Compared with CATATCAC, ATTGTAGC is higher in “PBM E-score” value: -0.132 for the first, -0.0697 for the second.

Going from AGGTATCA to ATCTATCC, the “PBM E-score” value rises from -0.27 to 0.204.

Compared with CCCACTCA, CCTAGTTA is lower in “PBM E-score” value: -0.108 for the first, -0.132 for the second.

Going from CATCGTAG to ACGCTTAC, the “PBM E-score” value rises from -0.323 to -0.143.

Compared with ACGAGTCC, GGCCATAC is higher in “PBM E-score” value: 0.00565 for the first, 0.108 for the second.

First: GGACCAAA
Second: CACTAGCG
The “PBM E-score” value of the first is higher: 0.187 for the first, -0.0368 for the second.

Compared with CCAGGGTA, GCGGGCTA is higher in “PBM E-score” value: -0.0798 for the first, 0.0437 for the second.

Compared with GATTACTA, AAACCCCG is higher in “PBM E-score” value: 0.0418 for the first, 0.264 for the second.

Compared with ACGAGCAT, CCGTACTA is higher in “PBM E-score” value: -0.187 for the first, 0.293 for the second.

Compared with CAAGGTCC, AGCTTTCG is lower in “PBM E-score” value: -0.0578 for the first, -0.0763 for the second.

First: GCACAAGA
Second: TCCCGAGA
The “PBM E-score” value of the first is lower: -0.00863 for the first, 0.339 for the second.

Going from GTCACCAC to ACCAACGA, the “PBM E-score” value falls from -0.103 to -0.117.

Compared with CTTTGGAC, CAAGCCTA is lower in “PBM E-score” value: 0.0264 for the first, -0.238 for the second.

First: ATTCTCGG
Second: AAATGAGG
The “PBM E-score” value of the first is higher: 0.243 for the first, -0.12 for the second.

Going from ATGTCGAC to GCCTCGCC, the “PBM E-score” value rises from 0.0706 to 0.0846.

First: GTCATGAA
Second: AATGTGAT
The “PBM E-score” value of the first is higher: 0.0842 for the first, -0.209 for the second.

Compared with CTCGTCCA, AAGATCGA is higher in “PBM E-score” value: -0.0423 for the first, -0.0218 for the second.

First: AGGGTGTA
Second: AGGCTACT
The “PBM E-score” value of the first is higher: -0.14 for the first, -0.167 for the second.

Going from AGCGCACC to GATTCACC, the “PBM E-score” value rises from 0.0564 to 0.126.

First: GTCGACCA
Second: ACGGTCGC
The “PBM E-score” value of the first is higher: 0.121 for the first, -0.0547 for the second.

Going from TCGACGCA to CATTAAGC, the “PBM E-score” value falls from 0.0524 to -0.137.

First: CTGTCATC
Second: GTATATAC
The “PBM E-score” value of the first is lower: -0.169 for the first, -0.115 for the second.

Going from AAACTCCG to ACCTTTAA, the “PBM E-score” value falls from 0.3 to -0.0915.

Going from AGTTAAAA to GCCCCTAC, the “PBM E-score” value falls from -0.0117 to -0.111.

Going from GGATAGCC to ACAAGGTA, the “PBM E-score” value falls from 0.175 to -0.0922.

Compared with CCGAACAC, GTAGTCAA is lower in “PBM E-score” value: 0.194 for the first, -0.0785 for the second.

Compared with AAGTGTTC, CGGGAACC is higher in “PBM E-score” value: 0.13 for the first, 0.312 for the second.

Going from AAGTATGA to TCGTAAGA, the “PBM E-score” value falls from 0.0365 to -0.098.

First: GTGTAACA
Second: AAGAGAAT
The “PBM E-score” value of the first is lower: -0.112 for the first, 0.153 for the second.

Going from ATTGCTAC to CTCTGAGC, the “PBM E-score” value falls from -0.0505 to -0.219.

Going from AAAGGACC to GGTCCACA, the “PBM E-score” value falls from -0.00409 to -0.232.

First: AACACTCG
Second: CTGGCCCC
The “PBM E-score” value of the first is lower: -0.0431 for the first, 0.0884 for the second.

First: CTACTGGC
Second: CTCCAGCA
The “PBM E-score” value of the first is higher: -0.0039 for the first, -0.205 for the second.

First: ATGACCAA
Second: AATAGCGC
The “PBM E-score” value of the first is lower: -0.0317 for the first, 0.0976 for the second.

First: CTGTCAAG
Second: GCTTTACC
The “PBM E-score” value of the first is lower: -0.177 for the first, -0.0101 for the second.

Going from CCTCAAAA to CTGACAAG, the “PBM E-score” value falls from -0.0756 to -0.159.

First: GGAACCCC
Second: GGCCTACC
The “PBM E-score” value of the first is higher: 0.212 for the first, 0.0488 for the second.

First: TAACTGGA
Second: GCCGTGCA
The “PBM E-score” value of the first is lower: -0.0126 for the first, 0.0751 for the second.

Going from CCTCGTAC to AACTTTTA, the “PBM E-score” value falls from 0.118 to 0.00331.

Compared with ATGAGTAC, CCTAGGTC is higher in “PBM E-score” value: -0.0214 for the first, -0.00572 for the second.

First: ATCAAAAG
Second: AAGACGCC
The “PBM E-score” value of the first is lower: -0.107 for the first, 0.085 for the second.

First: CTAATATA
Second: AGGCCAGG
The “PBM E-score” value of the first is lower: -0.246 for the first, -0.13 for the second.

First: CAGAGTGG
Second: AGAAACAG
The “PBM E-score” value of the first is lower: -0.184 for the first, -0.109 for the second.

Going from AGACGCCT to GATTACCA, the “PBM E-score” value rises from -0.25 to -0.0218.

First: AAAGTAGT
Second: CATTAGGG
The “PBM E-score” value of the first is higher: -0.17 for the first, -0.244 for the second.

Compared with ACGTAGTG, TCAATCGA is higher in “PBM E-score” value: -0.0399 for the first, 0.0156 for the second.

Compared with ATCCCAAA, CCAGGCCC is lower in “PBM E-score” value: 0.0137 for the first, -0.0292 for the second.

Going from ATTGCCCC to CCTACTAC, the “PBM E-score” value falls from -0.0313 to -0.22.

Going from ACATCACA to GCGTCAGA, the “PBM E-score” value falls from -0.114 to -0.153.

Compared with GCCGATTA, AACTACTA is higher in “PBM E-score” value: 0.0363 for the first, 0.144 for the second.

Going from CAGGTTTA to ATGAGAAA, the “PBM E-score” value falls from 0.054 to -0.22.

First: TAAGACGA
Second: AGCGATGA
The “PBM E-score” value of the first is lower: -0.189 for the first, 0.0631 for the second.

First: AATAAGCC
Second: ACTGGTCT
The “PBM E-score” value of the first is higher: -0.0909 for the first, -0.183 for the second.

Compared with CGCAGTTA, CCGCCTGA is higher in “PBM E-score” value: 0.0512 for the first, 0.145 for the second.

Going from ATGAGCAT to GAATCACC, the “PBM E-score” value falls from 0.0552 to -0.027.

Compared with GTATCGCA, CGGGACCG is higher in “PBM E-score” value: -0.0133 for the first, 0.373 for the second.

Compared with ACTAGACT, AGTGTCAA is higher in “PBM E-score” value: -0.23 for the first, -0.0103 for the second.

First: CAGATATC
Second: ACGGTGCC
The “PBM E-score” value of the first is lower: -0.0706 for the first, 0.0198 for the second.

First: ACAAAGTC
Second: CCGCTGAC
The “PBM E-score” value of the first is lower: -0.0159 for the first, 0.0773 for the second.

Going from AGTGAAAA to ACCTAGGT, the “PBM E-score” value falls from 0.109 to -0.246.

Compared with CCCGCACG, CGTCGGAG is lower in “PBM E-score” value: 0.206 for the first, 0.178 for the second.
